The values that follow come from PubChem BioAssay AID463173 (ICCB-Longwood Screening Facility, Harvard Medical School, 2010).

Molecules are shown by their SMILES. The campaign covered roughly 52,000 compounds. About 4,300 (8.3%) were called active. Cut-off read from the data, not from the text of the source: active = survival mostly below about 52% (no sharp cut-off); inactive = mostly above about 56%. The list shows a part of the results.

The test system of the test is DeltatarO mutant. The experiment in a line: growth inhibition of S. aureus wild type versus tarO mutant, primary screen, teichoic acid synthesis inhibitors, RN4220, OD600 (AID 463173). The following applies: OD600, 18 h, hits give low values, screened at 18.75 µg/mL (by protocol).
In the case of `CCN(CC)C(=O)Cn1c(=O)n(-c2ccc(Cl)c(Cl)c2)c(=O)c2c(C)c(C(=O)N(CC)CC)sc21`, the survival was inactive: 83%.
In the case of `COc1cccc(OCc2nnc(SCC(=O)O)o2)c1` it was inactive: 81%.
In the case of `CCc1nnc2c(N3CCN(c4cccc(C)c4)C(C)C3)nc3ccccc3n12` (stereo unspecified) it was inactive: 73%; in that of `COc1cc(OC)cc(C(=O)Nc2cc3c(cc2N2CCCCC2)n(C)c(=O)n3C)c1`, inactive: 83%; in that of `COc1ccc(-c2c(C#N)c(SCC(=O)Nc3cccc(Cl)c3)nc(C)c2C(=O)Nc2ccccc2)cc1OC`, inactive: 139%.
In the case of `CCc1ccccc1NC(=O)Cn1c(=O)n(Cc2ccco2)c(=O)c2ccccc21` it was inactive: 89%; in that of `Cc1ccc(N2C(=O)CC(c3ccccc3F)C3=C2COC3=O)cc1Cl` (stereo unspecified), inactive: 119%.
With `CCc1ccc(NC(=O)C2CCN(c3nn4cc(-c5ccc(OC)cc5)nc4s3)CC2)cc1`, the survival is inactive: 74%.
In the case of `COc1ccc(CNC(=O)c2cnc3sc(N4CCC(C)CC4)nn3c2=O)c(OC)c1` it was inactive: 71%.
Take `Cc1c(C)n(Cc2ccccc2)c2ccc(C(=O)NCc3ccccc3F)cc12`: the survival is inactive: 88%.
In the case of `COc1ccccc1NC(=O)NCCCN1CCN(c2ccc(F)cc2)CC1` it was inactive: 82%.
In the case of `O=C(c1cnn(-c2cccc(F)c2)c1-n1cccc1)N1CCN(c2ccccc2F)CC1` it was inactive: 75%; in that of `COC(=O)C1=C(C)NC(C)=C(C(=O)OC)C1c1cn(-c2ccccc2)nc1-c1ccco1`, inactive: 69%; in that of `COc1ccc(-n2nc3c(N4CCC(C(=O)NCc5cccc(F)c5)CC4)nnc(C)c3c2C)cc1`, inactive: 71%.
The value for `CC(=O)c1cccc(NC(=O)CN2C(=O)c3ccccc3Sc3ncccc32)c1` was inactive: 95%; that for `N#CC1=C(N)OC2=C(CCc3ccccc32)C1c1ccccc1` (stereo unspecified) was active: 2%.
As for `COc1ccc(NC(=O)c2ccc3c(c2)N(Cc2cccc(Cl)c2)C(=O)c2ccccc2S3=O)cc1Cl` (stereo unspecified), the survival was inactive: 112%.
The value for `COc1ccc(C2C=C(c3ccc(F)cc3)Nc3nc(-c4ccc(Cl)cc4)nn32)cc1` (stereo unspecified) was inactive: 104%; that for `Cc1ccc2c(CNCC(C)c3ccccc3)c(C(=O)O)n(Cc3ccccc3C)c2c1` (stereo unspecified) was inactive: 70%; that for `CC1=C(C(=O)NCc2ccccc2Cl)C2(CCCCCC2)OC1=O` was inactive: 49%.
The value for `CCOC(=O)C1CCN(C(=O)Cn2nc(C)n3c(cc4sccc43)c2=O)CC1` was inactive: 94%; that for `Cc1ccccc1Cn1c(CN2CCC(C(=O)NCc3cccnc3)CC2)cc2ccccc21` was inactive: 80%; that for `Cn1c(SCC(=O)N2CCOCC2)ncc(C(=O)Nc2ccccc2)c1=O` was inactive: 76%.
The value for `COc1ccc(C(=O)Nc2cccc(-c3cn4ccsc4n3)c2)cc1OC` was inactive: 92%.
`CCCN1CCN(CCCNC(=O)c2ccc3c(c2)sc2nc(-c4ccc(OC)cc4)cn23)CC1`: the survival was inactive: 73%.
The value for `Cc1ccccc1OCc1nnc(SCC(=O)Nc2sc(C)c(C)c2C#N)n1-c1ccccc1` was inactive: 69%; that for `COc1cccc(C2CC(=O)Nc3c2c(=O)n(C)c2nc4ccccc4n32)c1OC` (stereo unspecified) was inactive: 68%; that for `O=C(CCn1c(=O)c2sccc2n(Cc2ccc(F)cc2)c1=O)NCc1ccc2c(c1)OCO2` was inactive: 89%.
In the case of `Cc1ccc(-n2nc3cc(C)c(NC(=O)c4ccc(-c5ccccc5)o4)cc3n2)cc1` it was active: 46%.
The value for `Cc1ccc(NC(=O)CC2Oc3ccc(C)cc3NC2=O)c(C)c1` (stereo unspecified) was inactive: 75%; that for `COc1cccc(Nc2nnc(-c3cc4ccc(O)cc4oc3=O)s2)c1` was inactive: 85%.
Consider `CCOc1ccc(NC(=O)Cn2c(=O)n(CCc3ccccc3)c(=O)c3c4c(sc32)CCCC4)cc1`, for which the survival is inactive: 93%.
Regarding `Cc1ccc(Cl)cc1NC(=O)Cn1c(=O)cc(C)c2c(C)nn(C)c21`, the survival is inactive: 113%.
The value for `Cc1ccc(CNC(=O)CCNS(=O)(=O)c2ccc3c(c2)oc(=O)n3C)cc1` was inactive: 124%.
The value for `Cc1cc(C)c(S(=O)(=O)Nc2ccc3oc(C)c(C(=O)OC(C)C)c3c2)cc1C` was active: 48%.
In the case of `Cc1oc(-c2cccc(Cl)c2)nc1CN1CCC(C(=O)NC(C)C)CC1` it was inactive: 103%; in that of `CCCCNC(=O)CCC1N=C2c3ccccc3N=C(SCC(=O)NCCc3ccc(OC)c(OC)c3)N2C1=O` (stereo unspecified), inactive: 64%.
With `Nc1nc(CC(=O)NN=C2CCCCCC2)cs1`, the survival is inactive: 65%.
In the case of `CCN(CC)CCNC(=O)CCn1c(=O)c2cccn2c2cccnc21` it was inactive: 87%; in that of `Cc1ccc2nc(-c3ccc(NC(=O)Cc4ccccc4)cc3)sc2c1`, inactive: 64%; in that of `CC(=O)c1ccc(NC(=O)Cn2nc(C(F)(F)F)c3c2CCC3)cc1`, inactive: 79%.
The value for `O=C(Cn1ncc2c3ccccc3n(Cc3ccccc3)c2c1=O)NCc1cccs1` was inactive: 91%.
In the case of `CCc1nc2ccc(C(=O)N3CCN(c4ccccc4F)CC3)cc2nc1CC` it was inactive: 77%; in that of `COc1cccc2sc(NC(=O)c3ccc4c(c3)OCCO4)nc12`, inactive: 88%; in that of `CCCCCCOc1ccc(/C=C/C(=O)Nc2sc3c(c2C(=O)OC)CCC3)cc1OC`, inactive: 69%.
Turning to `CCc1ccccc1NC(=O)CCNS(=O)(=O)c1ccc2c(c1)CCCC(=O)N2`, the survival is inactive: 102%.
In the case of `Cc1nccn1C(=O)c1ccccc1C(=O)O` it was inactive: 65%.
In the case of `COc1ccc(NC(=O)Cn2c(=O)oc3ccccc32)cc1` it was inactive: 100%; in that of `O=C(CSc1nc2ccsc2c(=O)n1Cc1ccc(F)cc1)NCc1ccc(Cl)cc1`, inactive: 76%.
The value for `COc1ccc(OC)c(-c2cc(C(=O)Nc3ccc(C)c(C)c3)no2)c1` was active: -1%.
Consider `CN1c2ccc(Cl)cc2-c2nc(SCC(=O)NCc3ccc(F)cc3)ncc2S1(=O)=O`, for which the survival was inactive: 117%.
The value for `Cc1cc(Nc2ccc(Br)cc2)n2nc(-c3ccccc3C)nc2n1` was active: 27%.
In the case of `CC1=C(C(=O)Nc2ccc(C)cc2C)C(c2ccccc2)n2nc(SCC(=O)c3ccc(C)cc3)nc2N1` (stereo unspecified) it was inactive: 116%; in that of `O=C(OC(C(=O)NCC1CCCO1)c1ccc(F)cc1)c1ccco1` (stereo unspecified), inactive: 80%.
`COc1cc(Cn2c(=O)oc3ccc(C)cc32)ccc1OCCC(C)C`: the survival is active: -1%.
For the molecule `CC(C)(C)c1ccc(S(=O)(=O)N2CCC(Oc3ccc(-n4cnnn4)cc3)CC2)cc1`, the survival is inactive: 69%.
